Article PMC7286521
Results are given in words; binding and its absence hold for the method and conditions named. In cells and extracts the contact can be indirect. Some entries that bind do so weakly or less than the wild type.

Sequences of proteins named here, by UniProt entry; tags and fusion partners are left off. A change or cut given only in a name is not applied to a line headed by its entry.
UniProt P46938: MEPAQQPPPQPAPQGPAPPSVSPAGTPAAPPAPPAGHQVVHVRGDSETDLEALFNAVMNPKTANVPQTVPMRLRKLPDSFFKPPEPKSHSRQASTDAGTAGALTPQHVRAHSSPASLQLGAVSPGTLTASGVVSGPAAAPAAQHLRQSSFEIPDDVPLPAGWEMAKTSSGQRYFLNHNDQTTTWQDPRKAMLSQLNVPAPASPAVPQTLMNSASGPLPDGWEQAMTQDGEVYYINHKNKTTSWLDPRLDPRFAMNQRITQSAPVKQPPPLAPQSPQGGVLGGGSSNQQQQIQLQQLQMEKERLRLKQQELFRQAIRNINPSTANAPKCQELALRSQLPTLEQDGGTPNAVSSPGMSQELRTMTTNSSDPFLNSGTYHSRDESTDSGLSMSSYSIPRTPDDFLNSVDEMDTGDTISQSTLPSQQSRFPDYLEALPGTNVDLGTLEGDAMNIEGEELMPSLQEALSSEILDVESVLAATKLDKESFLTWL
UniProt P48972: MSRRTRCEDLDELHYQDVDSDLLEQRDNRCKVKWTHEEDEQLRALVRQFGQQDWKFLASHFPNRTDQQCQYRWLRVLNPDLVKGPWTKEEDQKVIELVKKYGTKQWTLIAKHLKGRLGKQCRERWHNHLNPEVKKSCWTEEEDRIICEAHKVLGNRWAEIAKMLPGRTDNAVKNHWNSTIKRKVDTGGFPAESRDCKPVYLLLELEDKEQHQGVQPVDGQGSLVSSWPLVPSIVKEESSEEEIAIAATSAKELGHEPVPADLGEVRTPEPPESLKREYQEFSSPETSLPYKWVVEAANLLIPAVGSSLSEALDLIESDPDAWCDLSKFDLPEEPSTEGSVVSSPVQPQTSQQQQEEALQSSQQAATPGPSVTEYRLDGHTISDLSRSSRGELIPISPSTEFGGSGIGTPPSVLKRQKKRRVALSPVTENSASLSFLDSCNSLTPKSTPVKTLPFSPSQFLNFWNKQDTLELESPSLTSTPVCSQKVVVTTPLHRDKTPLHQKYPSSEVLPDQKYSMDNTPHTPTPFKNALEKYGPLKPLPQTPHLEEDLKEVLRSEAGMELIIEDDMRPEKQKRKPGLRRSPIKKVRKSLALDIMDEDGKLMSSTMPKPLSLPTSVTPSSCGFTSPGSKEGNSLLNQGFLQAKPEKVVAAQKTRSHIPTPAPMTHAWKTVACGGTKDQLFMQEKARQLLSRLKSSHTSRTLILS
UniProt Q15691: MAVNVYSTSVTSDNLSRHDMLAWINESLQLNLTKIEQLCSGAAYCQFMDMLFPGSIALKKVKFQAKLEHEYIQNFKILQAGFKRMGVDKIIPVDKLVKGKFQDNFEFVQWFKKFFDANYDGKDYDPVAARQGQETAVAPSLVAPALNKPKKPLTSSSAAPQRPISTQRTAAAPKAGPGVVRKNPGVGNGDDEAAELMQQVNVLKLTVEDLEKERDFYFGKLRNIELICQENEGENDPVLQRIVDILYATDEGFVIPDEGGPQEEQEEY
UniProt P10244: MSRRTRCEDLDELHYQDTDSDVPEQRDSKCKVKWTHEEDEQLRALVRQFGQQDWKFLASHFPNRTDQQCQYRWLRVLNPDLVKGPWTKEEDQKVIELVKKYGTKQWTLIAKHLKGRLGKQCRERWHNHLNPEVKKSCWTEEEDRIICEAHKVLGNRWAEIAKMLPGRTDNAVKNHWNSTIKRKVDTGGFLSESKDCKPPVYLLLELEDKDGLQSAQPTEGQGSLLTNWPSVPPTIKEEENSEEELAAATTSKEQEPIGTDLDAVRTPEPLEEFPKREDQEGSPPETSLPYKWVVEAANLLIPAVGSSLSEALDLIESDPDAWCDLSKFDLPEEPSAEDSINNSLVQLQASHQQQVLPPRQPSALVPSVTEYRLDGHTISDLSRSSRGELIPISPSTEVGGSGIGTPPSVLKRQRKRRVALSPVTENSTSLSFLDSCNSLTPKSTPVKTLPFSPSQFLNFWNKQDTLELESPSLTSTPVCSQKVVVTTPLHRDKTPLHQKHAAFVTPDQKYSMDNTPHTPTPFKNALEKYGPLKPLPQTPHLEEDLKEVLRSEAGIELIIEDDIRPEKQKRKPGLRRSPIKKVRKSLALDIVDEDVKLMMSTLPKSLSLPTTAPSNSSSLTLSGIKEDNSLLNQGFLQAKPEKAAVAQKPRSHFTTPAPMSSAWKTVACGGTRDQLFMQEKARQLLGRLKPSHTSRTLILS

Experiments:
[1] = target: YAP (endogenous, mouse embryonic cardiomyocytes) (mouse (endogenous in E14.5 cardiomyocytes)) (UniProt P46938); test: proximity ligation; Duolink In Situ PLA in E14.5 mouse cardiomyocytes with antibodies to YAP, LIN9 and B-MYB phospho-T487; controls: siRNA depletion of YAP/TAZ, LIN9 or B-MYB, deletion of Lin9, one antibody omitted
GST-WW1/2 (human) = GST-WW1/2 (human) (UniProt P46937); test: pull-down; recombinant GST or GST-YAP fusions immobilised on glutathione beads (5 μg by the legend, 5 mg by the methods), incubated with lysates of HeLa cells expressing HA-tagged proteins, 3 hours at 4°C, six washes with TNN buffer, anti-HA immunoblot; only the target purified
GST-WW1 (human) = GST-WW1 (human) (UniProt P46937); test: as above
[2] = target: FLAG-YAP (aa 2–499) (human) (UniProt P46937); test: co-IP; HeLa cells expressing HA-B-MYB constructs and flag-YAP constructs; 1 mg whole cell lysate in TNN buffer immunoprecipitated with FLAG antibody on protein G dynabeads, five washes, immunoblot with anti-HA
[3] = target: FLAG-YAP (aa 155–504) (human) (UniProt P46937); test: as above
[4] = target: FLAG-YAP (aa 2–263) (human) (UniProt P46937); test: as above
[5] = target: FLAG-YAP (aa 2–154) (human) (UniProt P46937); test: as above
[6] = target: FLAG-YAP (aa 288–504) (human) (UniProt P46937); test: as above
[7] = target: FLAG-YAP (aa 264–504) (human) (UniProt P46937); test: as above
[8] = target: FLAG-YAP (aa 2–287) (human) (UniProt P46937); test: as above
flag-YAP (human) [9] = target: flag-YAP (human) (UniProt P46937); test: as above
[10] = target: FLAG-YAP Δ155–263 (human) (UniProt P46937); test: as above
flag-YAP (human) [11] = target: flag-YAP (human) (UniProt P46937); test: co-IP; ectopically expressed flag-YAP and HA-B-MYB in C2C12 myoblasts
GST-WW2 (human) = GST-WW2 (human) (UniProt P46937); test: pull-down; recombinant GST or GST-YAP fusions immobilised on glutathione beads (5 μg by the legend, 5 mg by the methods), incubated with lysates of HeLa cells expressing HA-tagged proteins, 3 hours at 4°C, six washes with TNN buffer, anti-HA immunoblot; only the target purified

Q: Which binding [1] does the source give for “B-MYB (endogenous, mouse embryonic cardiomyocytes) (from UniProt P48972 1-704)” here?
A: binds

Q: With HA-EB1 (from UniProt Q15691 1-268) as the molecule, how does the binding (GST-WW1/2 (human)) read?
A: no binding

Q: Which binding (GST-WW1 (human)) does the source give for “HA-B-MYB(2–241) (from UniProt P10244 2-241) (domain or fragment)” here?
A: binds

Q: For “HA-B-MYB(242–410) (from UniProt P10244 242-410) (domain or fragment)”, which binding (GST-WW1 (human)) is on record?
A: no binding

Q: “HA-B-MYB(2–79) (from UniProt P10244 2-79) (domain or fragment)” was tested. Which binding (GST-WW1 (human)) did it give?
A: no binding

Q: How did the binding [2] turn out when HA-B-MYB (from UniProt P10244 1-700) was run?
A: binds

Q: What about the binding [3] of the same molecule?
A: binds

Q: And the binding [4]?
A: binds

Q: What about the binding [5] of the same molecule?
A: no binding

Q: What about the binding [6] of the same molecule?
A: no binding

Q: What about the binding [7] of the same molecule?
A: no binding

Q: What about the binding [8] of the same molecule?
A: binds

Q: And the binding (flag-YAP (human) [9])?
A: binds

Q: And the binding [10]?
A: no binding

Q: What about the binding (flag-YAP (human) [11]) of the same molecule?
A: binds

Q: What about the binding (GST-WW1/2 (human)) of the same molecule?
A: binds

Q: And the binding (GST-WW2 (human))?
A: binds

Q: What about the binding (GST-WW1 (human)) of the same molecule?
A: binds

B1: LIN9 (endogenous, mouse embryonic cardiomyocytes) (protein, UniProt Q8C735 1-542)
chain: MAELDQLPDESSSAKALVSLKEGSLSNTWNEKYSSLQKTPVWKGRNAGPAVEMPFRNSKRSRLFSDEDDRQINTKSPKRNQRVAMIPQKFTATMSTPDKKASQKIGFRLRNLLKLPKAHKWCIYEWFYSNIDKPLFEGDNDFCVCLKESFPNLKTRKLTRVEWGKIRRLMGKPRRCSSAFFEEERSALKQKRQKIRLLQQRKVADVSQFKDLPDEIPLPLVIGTKVTARLRGIHDGLFTGQIDAVDTLNATYRVTFDRTGLGTHTIPDYEVLSNEPHETMPISAFGQKQRPSRFFMTPPRLHYTPPLQSPITDGDPLLGQSPWRSKVSGSDTETLGGFPVEFLIQVTKLSKILMIKKEHIKKLREMNTEAEKLKSYSMPIGIEFQRRYATIVLELEQLNKDLNKVLHKVQQYCYELAPDQGLQPADQPTDMRRRCEEEAQEIVRQANSASGQPCVENENLTDLISRLTAILLQIKCLAEGGDLNSFEFKSLTDSLNDIKNTIDASNISCFQNNVEIHVAHIQSGLSQMGNLHAFAANNTNRD
Q: Which binding [1] does the source give for B1 here?
A: binds
